{"source": "paper PMC6212790", "note": "Some of the results follow. At the low end of the ranking, values are background and their order means little.", "data": [{"target": "T1, GST-Rok-C97-191 (UniProt O34857)", "T1 sequence": "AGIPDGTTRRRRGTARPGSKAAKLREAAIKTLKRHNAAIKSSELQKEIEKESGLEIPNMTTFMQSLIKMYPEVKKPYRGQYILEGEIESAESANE", "test": "protein binding microarray;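 also: rank score from −0.5 (least bound) to 0.5 (best bound)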", "conditions": "Rok is a gene silencer of Bacillus subtilis; high values mean tight binding; most listed sequences are background and not binding sites; double strand, one strand shown", "units": {"binding signal": "E-score"}, "values": [{"sequence": "AATTTTTA", "binding signal": 0.167}, {"sequence": "TAGCACCA", "binding signal": 0.0273}, {"sequence": "CAGTTTGA", "binding signal": -0.112}, {"sequence": "CTGGTGAA", "binding signal": -0.119}, {"sequence": "AGTGCGTC", "binding signal": -0.0216}, {"sequence": "GGAGCGCC", "binding signal": -0.272}, {"sequence": "AAGCTGGT", "binding signal": -0.116}, {"sequence": "ATGATGTC", "binding signal": -0.157}, {"sequence": "CACTTGTC", "binding signal": -0.0379}, {"sequence": "AGTTCCCC", "binding signal": -0.0551}, {"sequence": "CCACATAA", "binding signal": 0.167}, {"sequence": "ATCGAACA", "binding signal": -0.044}, {"sequence": "CCACCCGG", "binding signal": -0.155}, {"sequence": "TATGATCA", "binding signal": 0.25}, {"sequence": "GCACCAGA", "binding signal": -0.154}, {"sequence": "AATACGAT", "binding signal": 0.189}, {"sequence": "ACACCGCT", "binding signal": 0.0322}, {"sequence": "CGAGTGGA", "binding signal": -0.0488}, {"sequence": "CTCGACGC", "binding signal": -0.2}, {"sequence": "GAGAGACC", "binding signal": -0.229}, {"sequence": "CAAGTAAG", "binding signal": 0.0719}, {"sequence": "CCTAACGA", "binding signal": -0.114}, {"sequence": "AGGTGACC", "binding signal": -0.276}, {"sequence": "TCCTCAAA", "binding signal": -0.0783}, {"sequence": "ATCTTGAG", "binding signal": -0.0883}, {"sequence": "CTGTCTTA", "binding signal": 0.0549}, {"sequence": "AAATGGGG", "binding signal": -0.1}, {"sequence": "AATAGGGC", "binding signal": -0.119}, {"sequence": "AGCCGGAC", "binding signal": -0.0198}, {"sequence": "CCAGGGCG", "binding signal": -0.33}, {"sequence": "GTCAAAAA", "binding signal": -0.175}, {"sequence": "AGTGCTGC", "binding signal": -0.289}, {"sequence": "AGAGGTAG", "binding signal": 0.182}, {"sequence": "AAGTCTTA", "binding signal": 0.0648}, {"sequence": "CACTGACC", "binding signal": -0.0382}, {"sequence": "AACTCCAC", "binding signal": 0.00237}, {"sequence": "AACGATAC", "binding signal": 0.075}, {"sequence": "CCTAGCTA", "binding signal": 0.144}, {"sequence": "AGCCTAAT", "binding signal": -0.0187}, {"sequence": "ACTCTGTG", "binding signal": -0.072}, {"sequence": "CCATAATC", "binding signal": -0.0741}, {"sequence": "CGACCCAA", "binding signal": -0.0467}, {"sequence": "AACAACCC", "binding signal": 0.0537}, {"sequence": "CCGAGGAC", "binding signal": -0.061}, {"sequence": "ATACTTGG", "binding signal": 0.0891}, {"sequence": "AACTGGAC", "binding signal": -0.0284}, {"sequence": "GACAATGA", "binding signal": -0.0625}, {"sequence": "GCTTCCCC", "binding signal": -0.189}, {"sequence": "CTACCTAG", "binding signal": 0.243}, {"sequence": "AAAGTAAG", "binding signal": 0.12}, {"sequence": "GAAGCCAA", "binding signal": -0.0635}, {"sequence": "AGACGATC", "binding signal": -0.168}, {"sequence": "CCTACCAC", "binding signal": 0.251}, {"sequence": "GACACCGA", "binding signal": -0.231}, {"sequence": "GAAAGAGA", "binding signal": -0.255}, {"sequence": "CGGGTAAG", "binding signal": -0.0992}, {"sequence": "GCGCCTAC", "binding signal": -0.00693}, {"sequence": "ATAAATAG", "binding signal": 0.252}, {"sequence": "ATACAAAC", "binding signal": 0.371}, {"sequence": "CAGGAGAA", "binding signal": 0.0314}, {"sequence": "TTGACAAA", "binding signal": 0.0348}, {"sequence": "AATAGCAG", "binding signal": 0.0766}, {"sequence": "CAATGAGA", "binding signal": -0.17}, {"sequence": "ACCTGGAT", "binding signal": -0.0781}, {"sequence": "CAGCTCTC", "binding signal": -0.135}, {"sequence": "TATGACAA", "binding signal": -0.00238}, {"sequence": "AGACTAGA", "binding signal": 0.199}, {"sequence": "CCTACAAG", "binding signal": 0.0527}, {"sequence": "GTCCTCGA", "binding signal": -0.0981}, {"sequence": "CTGTGATA", "binding signal": 0.197}, {"sequence": "AACTCCAT", "binding signal": 0.107}, {"sequence": "GTCATGAA", "binding signal": -0.0595}, {"sequence": "ATCTTTAG", "binding signal": 0.0903}, {"sequence": "GGGCATAC", "binding signal": -0.0596}, {"sequence": "CTGGACTA", "binding signal": 0.118}, {"sequence": "CAGCTGCC", "binding signal": -0.308}, {"sequence": "ACATGCGA", "binding signal": 0.00634}, {"sequence": "AACAGACG", "binding signal": -0.0272}, {"sequence": "CTACTGAC", "binding signal": 0.181}, {"sequence": "AACGTCGA", "binding signal": 0.0178}, {"sequence": "CGAAGAAA", "binding signal": 0.193}, {"sequence": "ACCCCCAT", "binding signal": -0.134}, {"sequence": "AACCGACA", "binding signal": -0.091}, {"sequence": "CAAGCAGG", "binding signal": -0.2}, {"sequence": "ACGATCTA", "binding signal": 0.136}, {"sequence": "CAAGGCGG", "binding signal": -0.26}, {"sequence": "ATAACTCG", "binding signal": 0.208}, {"sequence": "CAGTTTGC", "binding signal": -0.134}, {"sequence": "AAAGGCCT", "binding signal": -0.284}, {"sequence": "ATCAGCGG", "binding signal": 0.0188}, {"sequence": "CGGCCTGC", "binding signal": -0.324}, {"sequence": "CATCGAAG", "binding signal": -0.149}, {"sequence": "CTAGTGGC", "binding signal": -0.0357}, {"sequence": "CATACGGA", "binding signal": 0.128}, {"sequence": "GACTGCGC", "binding signal": -0.268}, {"sequence": "CTCAATGA", "binding signal": -0.0275}, {"sequence": "CAAATAAA", "binding signal": 0.188}, {"sequence": "CCCAAACA", "binding signal": -0.161}, {"sequence": "GTAGACTA", "binding signal": 0.29}, {"sequence": "AGGCGTAA", "binding signal": -0.123}, {"sequence": "CTGTCGCA", "binding signal": -0.0246}, {"sequence": "GTTTCTCA", "binding signal": 0.141}, {"sequence": "GATCGGCA", "binding signal": -0.135}, {"sequence": "GAACGAAC", "binding signal": -0.117}, {"sequence": "ATAGTCCG", "binding signal": -0.0735}, {"sequence": "AAGGACAG", "binding signal": -0.169}, {"sequence": "ATCCTCCA", "binding signal": -0.00828}, {"sequence": "CGGCGGAC", "binding signal": -0.281}, {"sequence": "CGTCCACG", "binding signal": -0.161}, {"sequence": "AGCATCCT", "binding signal": -0.0122}, {"sequence": "AATATCCC", "binding signal": -0.0132}, {"sequence": "AAATTGTA", "binding signal": 0.255}, {"sequence": "GGCCGGTA", "binding signal": 0.0437}, {"sequence": "ACTGCCAC", "binding signal": -0.165}, {"sequence": "CCCGCGAG", "binding signal": -0.355}, {"sequence": "CAGTCCAC", "binding signal": -0.234}, {"sequence": "AACATCTC", "binding signal": -0.0846}, {"sequence": "GGTTATCA", "binding signal": 0.0988}, {"sequence": "ACATAAAT", "binding signal": 0.181}, {"sequence": "ACCTGCCG", "binding signal": -0.213}, {"sequence": "CATAGACG", "binding signal": -0.0205}, {"sequence": "AACTTTGC", "binding signal": 0.171}, {"sequence": "ATGTGATA", "binding signal": 0.253}, {"sequence": "AAAAGATG", "binding signal": -0.225}, {"sequence": "ACATTGTG", "binding signal": 0.0481}, {"sequence": "ATTGTCAG", "binding signal": -0.0244}, {"sequence": "ACGTCCAC", "binding signal": -0.225}, {"sequence": "CGTGTACA", "binding signal": 0.108}, {"sequence": "AGTGTGTG", "binding signal": -0.139}, {"sequence": "CGGTGGAG", "binding signal": -0.0359}, {"sequence": "AAAATTAG", "binding signal": 0.192}, {"sequence": "GGGTCGTA", "binding signal": -0.0724}, {"sequence": "CCATCGCC", "binding signal": -0.187}, {"sequence": "GATCTAAC", "binding signal": 0.0254}, {"sequence": "CACTTGAC", "binding signal": -0.137}, {"sequence": "CGCTTGAG", "binding signal": -0.0324}, {"sequence": "CGTTGGAA", "binding signal": -0.164}, {"sequence": "CTACCACA", "binding signal": 0.343}, {"sequence": "ATGTAAAG", "binding signal": 0.164}, {"sequence": "GCCTAAAA", "binding signal": -0.115}, {"sequence": "ACCACTAC", "binding signal": 0.188}, {"sequence": "CAACTTCC", "binding signal": 0.00507}, {"sequence": "AGAGTATG", "binding signal": 0.000327}, {"sequence": "AACAGGCT", "binding signal": -0.162}, {"sequence": "ATTGTGCG", "binding signal": 0.189}, {"sequence": "AGTGATCG", "binding signal": -0.122}, {"sequence": "ACGGCTAC", "binding signal": -0.148}, {"sequence": "CTCTATGA", "binding signal": 0.0427}, {"sequence": "TAGCTAGA", "binding signal": 0.192}, {"sequence": "GCTAAGCA", "binding signal": -0.0119}, {"sequence": "CGGGCTAG", "binding signal": -0.177}, {"sequence": "AACGCGGT", "binding signal": -0.112}, {"sequence": "AGCGATGA", "binding signal": -0.0838}, {"sequence": "AGTGTAGG", "binding signal": 0.0625}, {"sequence": "GAAGTGTA", "binding signal": 0.11}, {"sequence": "AGGATCGA", "binding signal": 0.152}, {"sequence": "TCATTCGA", "binding signal": -0.0739}, {"sequence": "CCGCATTC", "binding signal": 0.0507}, {"sequence": "ATAAGCAT", "binding signal": 0.114}, {"sequence": "AGTCAGAC", "binding signal": -0.121}, {"sequence": "AGACACCG", "binding signal": -0.228}, {"sequence": "AGCAAATC", "binding signal": -0.0398}, {"sequence": "ATCTATGC", "binding signal": -0.0314}, {"sequence": "ACCCCGAA", "binding signal": -0.306}, {"sequence": "GTACCGGA", "binding signal": 0.0446}, {"sequence": "TCGTAGAA", "binding signal": 0.236}, {"sequence": "ACCTTGAT", "binding signal": 0.106}, {"sequence": "CCTCCCTC", "binding signal": -0.133}, {"sequence": "CGTCTTCC", "binding signal": -0.286}, {"sequence": "ATATTTGA", "binding signal": 0.082}, {"sequence": "AGTCTCTC", "binding signal": -0.0911}, {"sequence": "GGTATAGA", "binding signal": 0.221}]}]}
